Assay results: publication PMC4242493
Some of the results follow. The list includes weakly bound sequences.

These sequences were tested against MaxL homodimer (UniProt P61244) (assay: universal protein-binding microarray (PBM)). Conditions: PBS-based mixture, 10 nM His-tagged protein dimer, 2% milk, 200 ng/uL BSA, 50 ng/uL salmon testes DNA, 0.02% TX-100; detection with Alexa 488 anti-His …; high values mean tight binding; most listed sequences are background and not binding sites; double strand, one strand shown.
Sequence of UniProt P61244 (P61244 whole entry): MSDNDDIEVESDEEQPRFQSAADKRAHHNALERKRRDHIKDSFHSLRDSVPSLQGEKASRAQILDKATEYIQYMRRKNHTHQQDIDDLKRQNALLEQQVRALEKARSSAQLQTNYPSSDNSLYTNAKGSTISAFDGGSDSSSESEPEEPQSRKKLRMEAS

Row | Sequence | binding signal (normalized occupancy)
1 | ATCTTCCC | 0.0773
2 | AAAATACC | 0.0726
3 | GACTACTC | 0.0777
4 | GCGCTAAC | 0.0691
5 | ACTCGTAT | 0.0768
6 | GGATCGCA | 0.078
7 | ATGTAGAA | 0.0828
8 | TCGACCAA | 0.0711
9 | CGGAGCTC | 0.0681
10 | AGGACTGA | 0.0723
11 | GCCGTGGA | 0.0736
12 | GATCGCCC | 0.0778
13 | AACTCGTC | 0.0781
14 | AACTGGTG | 0.0788
15 | AGGAGCCA | 0.0769
16 | TCAACAGA | 0.0736
17 | AATCTGGC | 0.0705
18 | CATGCCGC | 0.105
19 | ACAGCTAC | 0.0756
20 | CAACCTTA | 0.0759
21 | ATTGCCTA | 0.0755
22 | AGATTTTG | 0.0755

Row | Sequence | binding signal (normalized occupancy)
23 | CAAAGGAA | 0.0723
24 | CATATCCA | 0.089
25 | CCATCCGC | 0.0781
26 | GCACCCAC | 0.0831
27 | CAGTTATG | 0.077
28 | CCGTGTCA | 0.088
29 | CCAGCGCA | 0.0714
30 | CGGGGTTC | 0.0762
31 | GTCAGTCA | 0.0741
32 | GGGGGTCA | 0.082
33 | GCCAGGGC | 0.0697
34 | AGTTTAAC | 0.0739
35 | CACTGCCC | 0.0732
36 | TATGCGAA | 0.0764
37 | CCGACTCA | 0.0737
38 | CGTAGCAA | 0.0735
39 | GATTCCAC | 0.0828
40 | ACTAAATC | 0.0698
41 | AGGTCGAG | 0.0717
42 | CGTCTGTA | 0.0809
43 | AACAAAAC | 0.0708
44 | ATGATTCA | 0.0831

Row | Sequence | binding signal (normalized occupancy)
45 | GAAAGCGA | 0.0679
46 | AAAGATAA | 0.0737
47 | AGTGTACG | 0.0794
48 | GCTCACCA | 0.0765
49 | CTCATCAA | 0.0791
50 | CGAGCTGC | 0.0672
51 | AGATTGAG | 0.0761
52 | AATCAGAG | 0.0775
53 | ACCGCAGT | 0.0731
54 | ACTGAAAG | 0.0706
55 | ATTTGGTG | 0.0793
56 | AAGGTACT | 0.0721
57 | AGGGTCGA | 0.0706
58 | GGACTTAC | 0.0687
59 | AACATGGT | 0.0843
60 | CAAGATAG | 0.0769
61 | ATTCTACC | 0.0801
62 | CGAACGAG | 0.0777
63 | CCGGGGGC | 0.0651
64 | ACGGAGCA | 0.0747
65 | GCCTATCA | 0.0783
66 | TCCGCGAA | 0.0721

Row | Sequence | binding signal (normalized occupancy)
67 | GCGACAAC | 0.0759
68 | AGGACCGG | 0.068
69 | TGAACGCA | 0.078
70 | CTGCGACA | 0.072
71 | CTGCACAA | 0.0745
72 | ATTGGGAA | 0.0755
73 | GGTGGATA | 0.0747
74 | ATTTGCGC | 0.072
75 | GCTCTTCA | 0.0752
76 | CTAAAGAG | 0.07
77 | CAATGGCC | 0.0698
78 | AGAAACGG | 0.0689
79 | GGAAAAGA | 0.0734
80 | GAATCATC | 0.0782
81 | TCATAACA | 0.0873
82 | ACTCATTC | 0.0738
83 | ACGACCTC | 0.0713
84 | AACACCAT | 0.0807
85 | CGTGTCCA | 0.0813
86 | CCTGTGGC | 0.0714
87 | CCTGTGAA | 0.0752
88 | CTCACCTC | 0.0786

Row | Sequence | binding signal (normalized occupancy)
89 | CCAACAGA | 0.0753
90 | GATCGCGA | 0.0742
91 | AGTTTTAG | 0.0713
92 | CATAAAAG | 0.0783
93 | GCTATTAA | 0.075
94 | AATGGTTA | 0.0807
95 | ATTGCTAC | 0.0778
96 | CCAATTAA | 0.0789
97 | AGGGAGTG | 0.0764
98 | CGCGCCGC | 0.0722
99 | CGGGCCAG | 0.0675
100 | AACAAGCC | 0.0718
101 | CATTCCAG | 0.0773
102 | CACGCAGA | 0.0851
103 | CTGGGAAA | 0.0704
104 | ACGCGATA | 0.0795
105 | GCGGTGTA | 0.0746
106 | AGCAACAT | 0.0801
107 | CGCCCCTA | 0.0747
108 | ATGATTGG | 0.0808
109 | GCGTTTCA | 0.077
110 | CCCTGGGA | 0.0718
